# In PubChem BioAssay AID2100 (National Center for Advancing Translational Sciences (NCATS), 2009):
# In all, about 300,000 compounds went through this assay and about 1,200 (0.4%) were called active. Inconclusive means that the source gave no clear call. Such entries were picked first, then a sample of the others. Calls come from the whole dose curve; as a rule, active = well fitted inhibition curve with a large enough effect; inconclusive = small, poorly fitted or top-dose-only effect, or another doubt; inactive = no such curve, though single readings can be large or run the other way. A potency beside an inconclusive call is a rough fit, not a confirmed value.
# Molecular target: Lysosomal alpha-glucosidase (Homo sapiens) (UniProt P10253)
# Test: qHTS Assay for Inhibitors and Activators of Human alpha-Glucosidase Cleavage of Glycogen;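 for activity change, negative = inhibition: 0% = full enzyme reaction and -100% = no-enzyme basal signal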
# Details: recombinant GAA, glycogen substrate, Amplex Red glucose oxidase fluorescence; activity change, negative = inhibition: at 76.4 µM (top of the series) unless noted
# Summary of the method: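 Natural-substrate format: glycogen cleavage by 4 nM human enzyme, glucose read by Amplex Red coupling (Ex 573, Em 610 nm). Normalized to enzyme and no-enzyme controls.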
# Potency is the fitted concentration of half-maximal effect.
SMILES,Potency,"activity change, negative = inhibition"
c1ccc2c3c(ccc2c1)OCC1CONC31 (stereo unspecified),"inconclusive: 39.8 µM [inhibitor, partial curve]",–
C=CCN1C(=O)NC(=O)/C(=C/c2ccc(N(C)C)c(Br)c2)C1=O,"inconclusive: 10 µM [inhibitor, full curve]",–
Oc1cccc2nc3ccccc3nc12,"inconclusive: 22.4 µM [inhibitor, partial curve]",–
C/C(=N\Nc1cccc2ccccc12)c1c(O)n(Cc2ccccc2)c(=O)[nH]c1=O,"inconclusive: 35.5 µM [inhibitor, partial curve]",–
O=C1NC(=O)N(c2ccc(Cl)cc2)C(=O)/C1=C/c1coc2ccc(O)cc2c1=O,"inconclusive: 31.6 µM [inhibitor, partial curve]",–
COc1ccc2c3c([nH]c2c1)C(C)NCC3 (stereo unspecified),"inconclusive: 39.8 µM [activator, single point]",–
N#Cc1c(/N=C/C2C(=O)NC(=S)NC2=O)sc2c1CCCC2,"inconclusive: 22.2 µM [inhibitor, single point]",–
O=c1[nH]c(=O)n(Cc2ccccc2)c(O)c1/C=N/NCCO,"inconclusive: 35.5 µM [activator, single point]",–
CNc1ccc2oc(C[C@H]3O[C@@]4(CC[C@H]3C)O[C@H]([C@H](C)C(=O)c3ccc[nH]3)[C@H](C)C[C@H]4C)nc2c1C(=O)O,"inconclusive: 35.5 µM [inhibitor, single point]",–
Cc1onc(-c2ccccc2)c1C(=O)N1CCC2(CC1)OCCO2,inactive,–
NC(=S)N/N=C/c1coc2ccccc2c1=O,"inconclusive: 7.88 µM [inhibitor, partial curve]",–
CC1CN(O)C2CCc3c(no[n+]3[O-])C12O (stereo unspecified),active: 8.84 µM,–
N/C(=N\N=C\c1ccc(O)cc1O)N[N+](=O)[O-],"inconclusive: 44.7 µM [inhibitor, partial curve, poor fit]",–
COc1ccc(O)c(CN2CCCC(C(=O)c3sccc3C)C2)c1 (stereo unspecified),"inconclusive: 11.2 µM [inhibitor, partial curve]",–
CCN(CC)c1ccc(N=Cc2c(O)n(-c3ccccc3)c(=O)[nH]c2=O)cc1,"inconclusive: 14.1 µM [inhibitor, partial curve]",–
Oc1ccc2c3c1O[C@H]1c4[nH]c5ccccc5c4C[C@@]4(O)C(C2)N(CC2CC2)CC[C@]314,"inconclusive: 44.7 µM [inhibitor, partial curve]",–
NC(=O)c1ccc(N=Nc2c(O)[nH]c(=O)[nH]c2=O)cc1,inactive,–
COc1ccc(O)c(C(C)(C)C)c1,"inconclusive: 20 µM [inhibitor, partial curve]",–
O=C1NC(=S)N(c2ccccc2)C(=O)/C1=C/c1ccco1,"inconclusive: 25.1 µM [inhibitor, partial curve]",–
COC(=O)C1C=C2c3cccc4[nH]cc(c34)CC2N(C)C1 (stereo unspecified),inactive,–
Cc1ccc(Sc2c(C)[nH]n(C(C)(C)C)c2=O)cc1,"inconclusive: 39.8 µM [inhibitor, partial curve, poor fit]",–
CC1Cc2ccccc2N1NC(=O)c1ccc(Cl)c(S(N)(=O)=O)c1 (stereo unspecified),"inconclusive: 6.31 µM [inhibitor, full curve]",–

SMILES,Potency,"activity change, negative = inhibition"
Cc1ccccc1-n1c(O)c(/C=N/Nc2nc3c(c(=O)n(C)c(=O)n3C)n2C)c(=O)[nH]c1=S,"inconclusive: 25.1 µM [inhibitor, partial curve]",–
Cn1c(O)c(C2=NNC(c3ccc(Cl)cc3)C2)c(=O)n(C)c1=O (stereo unspecified),"inconclusive: 11.2 µM [inhibitor, partial curve]",–
COc1ccc(OC)c(C2C(C#N)=C(N)Oc3c2c(C)nn3-c2ccc(C)cc2)c1 (stereo unspecified),"inconclusive: 39.5 µM [inhibitor, single point]",–
CN1CC(C(=O)c2ccc(Cl)cc2)C(c2ccccc2F)C1 (stereo unspecified),inactive,–
CCCNC(=O)c1c(N)n(Cc2ccc3c(c2)OCO3)c2nc3ccccc3nc12,inactive,–
COc1cc(CN2CCCC(C(=O)c3sccc3C)C2)cc(OC)c1O (stereo unspecified),"inconclusive: 9.92 µM [inhibitor, partial curve]",–
O=C(NC1(C(F)(F)F)Oc2ccc(Cl)cc2O1)N1CCC2(CC1)OCCO2 (stereo unspecified),active: 8.91 µM,–
C/C(=N\Nc1ccccc1)c1c(O)n(-c2ccccc2)c(=O)[nH]c1=O,"inconclusive: 35.5 µM [inhibitor, partial curve]",–
O=C1C2CCN(CC2)[C@@H]1Cc1ccc2ccccc2c1O,active: 7.88 µM,–
CCN(CCO)c1ccc(N=Cc2c(O)n(C)c(=S)[nH]c2=O)cc1,"inconclusive: 31.6 µM [inhibitor, partial curve]",–
COc1ccccc1CCNC1CCC(C(C)(C)C)CC1 (stereo unspecified),"inconclusive: 49.7 µM [activator, partial curve, poor fit]",–
Oc1ccc(/C=N/NP(=S)(c2ccccc2)c2ccccc2)cc1O,active: 15.8 µM,–
CCOc1ccc(NCc2cccn2-c2nnc(N3CCC(C(=O)NC(C)c4ccccc4)CC3)s2)cc1 (stereo unspecified),"inconclusive: 20 µM [inhibitor, single point]",–
COc1cc(/C=C2\C(=O)NC(=O)N(c3ccccc3)C2=O)cc(OC)c1O,"inconclusive: 17.6 µM [inhibitor, partial curve]",–
COc1ccc(OC)c(N2C(=O)/C(=C/c3ccco3)C(=O)NC2=S)c1,inactive,–
Cc1ccc2c(c1)C1CN(C)CCC1N2C(=S)Nc1cccnc1 (stereo unspecified),"inconclusive: 56.2 µM [inhibitor, single point]",–
Cc1cc(N2C(=O)CC(N3CCC(n4c(=O)[nH]c5ccccc54)CC3)C2=O)no1 (stereo unspecified),–,inconclusive: 31.4% [activator]
Cc1[nH]c2ccccc2c1C1=CCNCC1,"inconclusive: 22.2 µM [activator, partial curve]",–
CN1C[C@H](CO)C=C2c3cccc4[nH]cc(c34)C[C@H]21,"inconclusive: 35.5 µM [activator, partial curve]",–
CC1(C)OC(c2ccccc2)=C/C(=C/C=C2C(=O)NC(=S)NC2=O)O1,"inconclusive: 50.1 µM [inhibitor, single point]",–
C=CCn1c(O)c(/C=N/N2CCCCC2)c(=O)[nH]c1=O,"inconclusive: 11.2 µM [inhibitor, partial curve]",–
O=c1[nH]c(=S)n(CCC2=CCCCC2)c(O)c1/C=N/Nc1ccccc1,"inconclusive: 12.6 µM [inhibitor, full curve, poor fit]",–

SMILES,Potency,"activity change, negative = inhibition"
CCOP(=O)(OCC)c1nc(-c2ccc(F)cc2)oc1NCc1ccccc1,"inconclusive: 35.5 µM [inhibitor, partial curve]",–
COc1ccc(N2C(=O)/C(=C/c3ccc(C)o3)C(=O)NC2=S)cc1,"inconclusive: 28.2 µM [inhibitor, partial curve]",–
Cc1cc(/C=C2\C(=O)NC(=O)N(c3ccc(F)cc3)C2=O)c(C)n1-c1ccc(C(=O)O)cc1,"inconclusive: 19.8 µM [inhibitor, partial curve]",–
O=C(O)CC1OCC=C2CN3CCC45C6=CC(=O)C(=O)C([N+](=O)[O-])=C6NC4C1C2CC35 (stereo unspecified),inactive,–
COc1ccc(N2C(=O)CC(N3CC=C(c4ccccc4)CC3)C2=O)cc1 (stereo unspecified),"inconclusive: 22.4 µM [activator, single point]",–
COc1cc(/C=C/c2nc3ccccc3c(=O)n2-c2ccccc2O)ccc1O,"inconclusive: 39.5 µM [inhibitor, single point]",–
O=C1NC(=O)C(=Cc2cn(CCOc3ccc4c(c3)OCO4)c3ccccc23)C(=O)N1,"inconclusive: 22.2 µM [inhibitor, single point]",–
Oc1ccc(CC2CC3CCN2CC3)cc1O (stereo unspecified),active: 3.52 µM,–
CC(C)(C)OC(=O)NNC(=S)NC1CCCCC1,"inconclusive: 50.1 µM [inhibitor, single point]",–
Cc1ccccc1Nc1c(-c2ccc(Br)cc2O)nc2sccn12,"inconclusive: 35.5 µM [inhibitor, single point]",–
O=c1[nH]c(=S)n(Cc2ccc(F)cc2)c(O)c1/C=N/N1CCCCCC1,"inconclusive: 3.16 µM [inhibitor, full curve, poor fit]",–
N#Cc1c(/N=C/c2c(O)n(Cc3ccco3)c(=O)[nH]c2=O)sc2c1CCCC2,active: 14 µM,–
CCc1ccc2c(CN3CC=C(c4ccccc4)CC3)cc(=O)oc2c1,"inconclusive: 15.8 µM [activator, partial curve]",–
Brc1ccc2[nH]cc(/C=N/N3CCCCC3)c2c1,"inconclusive: 8.91 µM [inhibitor, partial curve]",–
CN(C)[C@@H]1C(=O)C(C(N)=O)=C(O)[C@@]2(O)C(=O)C3=C(O)c4c(O)ccc(Cl)c4[C@@](C)(O)C3C[C@@H]12 (stereo partly specified),"inconclusive: 39.8 µM [inhibitor, single point]",–
O=C1Nc2ccc(Br)cc2C(c2ccccc2)=NC1O (stereo unspecified),inactive,–
O=C1CC(CSc2ccc(Cl)cc2)=NN1,"inconclusive: 10 µM [inhibitor, partial curve]",–
COc1ccc(P2(=O)Nc3ccccc3N2)cc1,"inconclusive: 35.2 µM [inhibitor, single point]",–
CCCC/C(C)=C/[C@@H](NP(=O)(c1ccccc1)c1ccccc1)c1ccccc1,active: 1.26 µM,–
CC(=O)c1c(C)n(CC2CCCO2)c2ccc(O)cc12 (stereo unspecified),"inconclusive: 35.5 µM [inhibitor, partial curve]",–
COc1cc([C@@H]2c3cc4c(cc3[C@@H](OC)[C@H]3COC(=O)[C@H]23)OCO4)cc(OC)c1O,inactive,–
O=c1[nH]c(=S)n(C2CC2)c(O)c1/C=N/Nc1ccccc1,"inconclusive: 28.2 µM [inhibitor, partial curve]",–
